# According to FireProtDB (doi:10.1529/biophysj.104.051052):
# Conditions: Glycine max, pH 7, GdnHCl, Fluorescence, HEPES 25 mM, CaCl2 15 mM, reversible: yes, whole UniProt chain shown
protein,measurement,setting,value
"Lectin wild type, P05046 (protein) MATSKLKTQNVVVSLSLTLTLVLVLLTSKANSAETVSFSWNKFVPKQPNMILQGDAIVTSSGKLQLNKVDENGTPKPSSLGRALYSTPIHIWDKETGSVASFAASFNFTFYAPDTKRLADGLAFFLAPIDTKPQTHAGYLGLFNENESGDQVVAVEFDTFRNSWDPPNPHIGINVNSIRSIKTTSWDLANNKVAKVLITYDASTSLLVASLVYPSQRTSNILSDVVDLKTSLPEWVRIGFSAATGLDIPGESHDVLSWSFASNLPHASSNIDPLDLTSFVLHEAI",denaturant m value,8 °C,7.4 kcal/mol/M
same,denaturant m value,10 °C,6.7 kcal/mol/M
same,denaturant m value,15 °C,5.6 kcal/mol/M
same,denaturant m value,20 °C,6.5 kcal/mol/M
same,denaturant m value,22 °C,6.2 kcal/mol/M
same,denaturant m value,25 °C,6.1 kcal/mol/M
same,denaturant m value,27 °C,6.3 kcal/mol/M
same,denaturant m value,30 °C,5.4 kcal/mol/M
same,denaturant m value,33 °C,5.6 kcal/mol/M
same,denaturant m value,40 °C,5.4 kcal/mol/M
same,denaturant m value,45 °C,5.4 kcal/mol/M
same,denaturant m value,50 °C,5.3 kcal/mol/M
